From PubChem BioAssay AID504339 (National Center for Advancing Translational Sciences (NCATS), 2011)
The whole screen tested about 390,000 compounds, of which about 17,000 (4.4%) were called active. This list was built around the results that the source calls inconclusive (neither active nor inactive); the mix of calls is not that of the screen. The call rests on the fitted dose curve; in most records, active means well fitted inhibition curve with a large enough effect; inconclusive means small, poorly fitted or top-dose-only effect; inactive means no such curve, though single readings can be large or run the other way. Where the call is inconclusive, the potency comes from a doubtful curve fit.

target: Lysine-specific demethylase 4A (Homo sapiens) (UniProt O75164); experiment: qHTS Assay for Inhibitors of JMJD2A-Tudor Domain; conditions: AlphaScreen JMJD2A-Tudor / H3K4me3 peptide binding; activity change, negative = inhibition: at 114 µM (top of the series); further: nearly all actives have a fitted effect of over 50% in size
On the % scale 0 is the no-effect control and ±100 the full control effect; potency means the concentration at half of the fitted maximal effect; tags describe the fitted curve by direction and shape.

Sequence of UniProt O75164 (O75164 whole entry, looked up, the tested form may be a part): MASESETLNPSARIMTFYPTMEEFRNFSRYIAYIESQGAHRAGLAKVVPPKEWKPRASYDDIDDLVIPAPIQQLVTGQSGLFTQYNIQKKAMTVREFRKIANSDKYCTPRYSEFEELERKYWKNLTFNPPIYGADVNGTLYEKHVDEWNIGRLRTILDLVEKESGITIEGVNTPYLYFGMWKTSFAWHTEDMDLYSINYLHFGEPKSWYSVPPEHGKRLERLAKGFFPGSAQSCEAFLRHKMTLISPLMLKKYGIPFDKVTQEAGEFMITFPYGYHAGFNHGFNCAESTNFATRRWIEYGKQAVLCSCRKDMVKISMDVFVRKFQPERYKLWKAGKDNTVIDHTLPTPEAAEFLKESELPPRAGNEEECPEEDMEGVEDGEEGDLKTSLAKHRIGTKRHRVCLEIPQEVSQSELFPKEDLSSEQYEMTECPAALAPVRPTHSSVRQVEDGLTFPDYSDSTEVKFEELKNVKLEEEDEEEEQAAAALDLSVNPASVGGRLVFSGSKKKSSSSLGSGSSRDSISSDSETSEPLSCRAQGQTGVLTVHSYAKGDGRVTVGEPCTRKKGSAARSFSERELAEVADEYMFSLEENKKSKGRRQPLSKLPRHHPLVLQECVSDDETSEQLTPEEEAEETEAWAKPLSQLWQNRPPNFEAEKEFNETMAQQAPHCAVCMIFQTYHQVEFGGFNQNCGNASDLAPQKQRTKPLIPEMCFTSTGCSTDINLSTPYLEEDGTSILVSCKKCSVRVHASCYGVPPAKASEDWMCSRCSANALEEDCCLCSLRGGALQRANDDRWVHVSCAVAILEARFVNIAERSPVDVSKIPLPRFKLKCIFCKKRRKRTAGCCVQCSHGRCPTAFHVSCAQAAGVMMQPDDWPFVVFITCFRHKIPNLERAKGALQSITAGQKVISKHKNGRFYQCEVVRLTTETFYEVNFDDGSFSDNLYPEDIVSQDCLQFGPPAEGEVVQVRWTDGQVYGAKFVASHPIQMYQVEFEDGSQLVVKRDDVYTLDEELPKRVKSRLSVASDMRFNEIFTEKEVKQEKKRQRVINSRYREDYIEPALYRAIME

Potency, inconclusive:
O=C(CSc1nccn1Cc1ccc(F)cc1)Nc1nc2ccccc2s1 89.1 µM [inhibitor, partial curve, poor fit]
Cc1ccccc1OCC(=O)NCC(=O)N/N=C/c1ccc(Br)o1 56.2 µM [inhibitor, partial curve]
COc1cc(C)nc(Nc2nc(C)c(C(C)=O)s2)n1 3.16 µM [inhibitor, single point]
O=C(Cc1ccccc1)NC(c1ccco1)c1c(O)ccc2ccccc12 (centres undefined) 44.7 µM [inhibitor, partial curve]
CC(=O)c1ccc(NC(=O)CNc2cc(S(=O)(=O)N3CCOCC3)ccc2N2CCCC2)cc1 63.1 µM [inhibitor, partial curve, poor fit]
CCn1c(SCC(=O)c2ccc(F)cc2)nnc1-c1ccoc1C 56.2 µM [inhibitor, partial curve]
O=C(CCc1nc2ccccc2c(=O)[nH]1)N1CCN(S(=O)(=O)c2ccccc2Br)CC1 89.1 µM [inhibitor, partial curve, poor fit]
O=C(NCC(c1ccco1)N1CCc2ccccc21)c1ccccc1Br (centres undefined) 44.7 µM [inhibitor, partial curve]
CCN(CC)c1ccc(NC(=O)C2CCN(S(=O)(=O)c3cnc[nH]3)CC2)c(C)c1 7.94 µM [inhibitor, full curve, poor fit]
Cc1ccc(C(=O)OCC(=O)c2c[nH]c3ccccc23)cc1S(=O)(=O)N1CCCCC1 50.1 µM [inhibitor, partial curve]
Cc1ccc(C(=O)NCCSc2c(C)[nH]c3ccccc23)cc1[N+](=O)[O-] 44.7 µM [inhibitor, partial curve]
COc1ccc(NC(=O)CSc2nnc(-c3cccs3)n2Cc2ccco2)cc1OC 89.1 µM [inhibitor, partial curve]
CCN1CCN(c2ccc([N+](=O)[O-])cc2C(=O)c2ccc(Cl)cc2)CC1 79.4 µM [inhibitor, single point]
O=c1nc2ccccc2c2n1CC(CN1CCN(C(c3ccccc3)c3ccccc3)CC1)N2 (centres undefined) 50.1 µM [inhibitor, partial curve]
COc1cc(NC(=S)NNC(=O)C(C)(C)O)cc(OC)c1 14.1 µM [inhibitor, single point]
Cc1cccc(NC(=S)NCc2ccc3[nH]c4c(c3c2)CCCC4)c1 22.4 µM [inhibitor, full curve]
C#CCOCCOCCOCCNc1nc(N2CCN(C(=O)[C@H](C)n3cc(CCC(=O)O)nn3)CC2)nc(N2CCN(C(=O)[C@H](C)n3cc(CCC(=O)O)nn3)CC2)n1 89.1 µM [inhibitor, single point]
O=C(O)c1cccc(Nc2nc(N3CCOCC3)nc(N3CCOCC3)n2)c1 25.1 µM [inhibitor, full curve]
O=C(N/N=C(\c1ccccc1)c1ccccn1)c1cccc([N+](=O)[O-])c1 79.4 µM [inhibitor, partial curve]
Cc1[nH]c2ccccc2c1SCC(=O)N1CCCc2ccccc21 56.2 µM [inhibitor, partial curve, poor fit]
CS(=O)(=O)NCCSCc1ccco1 63.1 µM [inhibitor, partial curve, poor fit]
CCN(Cc1nc(-c2ccc(OC)c(OC)c2)no1)C(=O)c1ccc2c(c1)OCO2 3.98 µM [inhibitor, full curve, poor fit]
N/C(=N\OC(=O)c1ccc([N+](=O)[O-])cc1Cl)c1ccccn1 15.8 µM [inhibitor, full curve]
COc1ccc(Cc2nnn(CC(=O)O)n2)cc1 89.1 µM [inhibitor, single point]
Cc1cc(/C=C2/SC(=S)N(c3ccc([N+](=O)[O-])cc3)C2=O)c(C)n1-c1cccnc1 14.1 µM [inhibitor, full curve]
CCCc1cc(-c2nc(N)ncc2-c2ccc3c(c2)OCCCO3)c(O)cc1OC 0.708 µM [inhibitor, full curve, poor fit]
O=[N+]([O-])c1ccc(Sc2cccc3cccnc23)cc1 50.1 µM [inhibitor, partial curve]
Cc1ccc(/C=C2/Sc3ccc(C(=O)N4CCN(C)CC4)cc3NC2=O)cc1 44.7 µM [inhibitor, partial curve]
CC(=O)Nc1ccc(OC2=NS(=O)(=O)c3ccccc32)cc1 89.1 µM [inhibitor, single point]
CCCCNC(=S)N/N=C1\C(=O)c2cccc3cccc1c23 35.5 µM [inhibitor, partial curve]
CC(C)Cc1nc2oc3c(N4CCN(CCO)CC4)ncnc3c2c2c1CCCC2 25.1 µM [inhibitor, full curve, poor fit]
O=C(CSc1ccc2nnc(-c3ccccn3)n2n1)Nc1ccccc1F 44.7 µM [inhibitor, full curve, poor fit]
COC(=O)c1c(N2C(=O)[C@H]3[C@@H](C2=O)[C@]2(C(=O)Nc4c2ccc(C)c4C)N2CCC[C@@H]32)sc(C)c1C 39.8 µM [inhibitor, partial curve]
NC(=O)C1(NC(=O)[C@@H]2CC3(CC(c4cccc(NC(=O)c5cc([N+](=O)[O-])cc([N+](=O)[O-])c5)c4)=NO3)CN2C(=O)c2ccccc2)CC1 (some centres undefined) 44.7 µM [inhibitor, partial curve]
Cc1ccc2nc(-c3cccc(NS(C)(=O)=O)c3)cc(-c3ccccc3)c2c1 44.7 µM [inhibitor, partial curve]
COc1ccc(/C=C2\SC(=S)N(CCC(=O)N3CCCCC3CCO)C2=O)cc1 (centres undefined) 22.4 µM [inhibitor, full curve]
COc1cc2cnc(-c3ccccc3)c(-c3ccc([N+](=O)[O-])cc3)c2cc1OC 14.1 µM [inhibitor, full curve, poor fit]

Potency, active:
CCN(CC)c1ccc(Nc2nc(Cl)ncc2Br)cc1 28.2 µM
C=CCc1cc(Cl)ccc1OCCCNC(C)CC (centres undefined) 22.4 µM
O=C(Nc1ccc2oc(-c3cccnc3)nc2c1)c1ccc2c(c1)OCCO2 89.1 µM
COc1ccc(CCNCC(=O)Nc2ccc(C(=O)N3CCCCC3)cc2)cc1 1.41 µM
COc1ccc(S(=O)(=O)NCC(c2ccc(N(C)C)cc2)N2CCc3ccccc32)cc1OC (centres undefined) 22.4 µM
O=C(COC(=O)c1cccc(S(=O)(=O)N2CCN(c3ccccc3)CC2)c1)NCc1ccco1 22.4 µM
COc1ccc(NCCc2ccccn2)cc1 79.4 µM
COc1ccccc1-n1c(SCC(=O)NCc2ccc3c(c2)OCO3)nc2cc([N+](=O)[O-])ccc21 50.1 µM
O=C(CN(c1ccccc1)S(=O)(=O)c1ccccc1)NCCSCc1ccco1 56.2 µM
Cc1ccc(OCCOCCN2CCN(C)CC2)c(C(C)(C)C)c1 5.62 µM
O=S(=O)(Nc1ccc(O)c(NS(=O)(=O)c2ccccc2)c1)c1ccccc1 63.1 µM

Activity change, negative = inhibition, inconclusive:
COc1ccccc1N1CCN(C(=O)c2ccc3[nH]c4c(c3c2)CC(C)CC4)CC1 (centres undefined) -65.9% [inhibitor]

Activity change, negative = inhibition, inactive:
CCc1nnc(NS(=O)(=O)c2ccc(NC(=O)/C=C/c3ccccc3Cl)cc2)s1 -13.2%
CCOC(=O)c1c(C)n(-c2ccc(OC)cc2)c2ccc(OC(=O)COc3ccccc3)cc12 2.29%
Cc1ccc2c(c1)C(c1ccccc1)CC(=O)O2 (centres undefined) 26%
Cc1ccc2nc(N3CCOCC3)c(C=O)cc2c1 3.99%
O=c1nc(Nc2cccc(Cl)c2)oc2cc(Cl)oc(=O)c12 -21.7%
O=C(O)c1ccc(S(=O)(=O)N[C@H](Cc2ccccc2)C(=O)O)cc1 1.38%
Cc1cc(NS(=O)(=O)c2ccc3oc(=O)c4ncn(C)c4c3c2)ccc1Br 4.17%
Cc1cc(C(=O)N2CCCC(C(=O)c3cccc4ccccc34)C2)nc(C)n1 (centres undefined) -11.9%
O=C(Nc1ccccc1C(=O)N1CCOCC1)C1COc2ccccc2O1 (centres undefined) -5.19%
COCCCn1c(SCC(=O)N2CCOCC2)nnc1-c1ccco1 -22.1%
Cc1cc(C)c(NC(=O)Cn2nnc(S(=O)(=O)c3ccc(C)c(C)c3)c2N)c(C)c1 -31.3%
CCOc1cccc(NC(=O)/C(C#N)=C\c2cccnc2)c1 -6.16%
NC(=O)CSc1nnc(-c2ccc(S(=O)(=O)N3CCCC3)cc2)n1Cc1ccco1 -4.48%
Brc1c(CSc2nncn2-c2ccccc2)nc2sccn12 -15.3%
COc1ccc(C(=O)N/C(=C/c2cccs2)C(=O)NCCCn2ccnc2)cc1OC -22.6%
CSCCC(NC(=O)COc1ccccc1)C(=O)N1CCN(C(C)=O)CC1 (centres undefined) -15.1%
COc1ccc(NC(=O)COC(=O)CCNS(=O)(=O)c2ccc(Cl)cc2)cc1 -25.6%
O=C(CC(c1ccccc1)c1cc(Cl)ccc1O)N1CCCC1 (centres undefined) -25.9%
COC(=O)c1sccc1NC(=O)c1cc(-c2cccc(C)c2)nc2ccccc12 -10.9%
COc1ccc(C2CC(c3ccccc3)=NN2S(=O)(=O)c2ccccc2)cc1 (centres undefined) -17.2%
